Consider seven compounds from PubChem BioAssay (NCI).

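Growth conditions: 96-well plates. Treatment: test compound, 48 hours, 5 concentrations. Analysis: linear interpolation between bracketing concentrations; unreached endpoints set to highest concentration. Here, GI50 denotes the concentration required for 50% inhibition of growth.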 Not every entry of the source has a single result; some have several. The list is limited to them. The source may hold further records. For some assays here: Records of one sample usually come from different ranges of test concentrations, not given here; a value can be the end of its range.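 TGI is the concentration that stops growth completely.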 For some assays here: Values that stand side by side are repeated measurements (runs, samples, wells, individuals or studies). Marks in square brackets tell the records apart. Letters hold for one entry only. Bounds are passed on as bounds.

Among the test systems are UACC-62 melanoma; KM20L2 colon; COLO 205 colon; SN12C renal; OVCAR-4 ovarian; UO-31 renal; SF-268 CNS; ACHN renal; SR leukemia; 786-0 renal; NCI-H23 lung; RPMI-8226 leukemia; A549 NSCLC; TK-10 renal; K-562 leukemia; SF-539 CNS; HT29 colon; SW-620 colon; MCF7 breast; SK-MEL-5 melanoma; OVCAR-5 ovarian; LOX IMVI melanoma; PC-3 prostate; M14 melanoma; KM12 colon; NCI/ADR-RES ovarian; HCT-116 colon; OVCAR-8 ovarian; IGROV1 ovarian; SNB-78 CNS; HOP-62 NSCLC.

Common to all, as to experiment: NCI-60 cell line screen, 48 h

For the compound `CC(=O)OCC1OC(OC2CC3C(C)(C)C(OC(C)=O)CC[C@]3(C)C3CCC45CC4(CC[C@H]5C(C)CC(O)C4OC4(C)C)[C@]23C)C(O)C(O)C1O` (some centres not stated), the TGI with UACC-62 melanoma was > 60 µM and 4.01 µM; in the experiment on KM20L2 colon, > 60 µM and 3.26 µM.

On to `CC[C@@]1(O)C(=O)OCc2c1cc1n(c2=O)Cc2cc3cc(OC)ccc3nc2-1`, for which the TGI in the experiment with COLO 205 colon was 3.27 µM and 73.7 µM; in the experiment on UACC-62 melanoma, 12.9 nM and 264 nM; with SN12C renal, 1.9 µM and 25.5 nM; with OVCAR-4 ovarian, 623 nM and > 100 µM; with UO-31 renal, 351 nM and > 100 µM; with SF-268 CNS, 727 nM and > 100 µM. The TGI in the experiment on ACHN renal is 109 nM, 1.52 µM, 1.21 µM; with SR leukemia, 6.82 µM and 14.5 nM; in the experiment with 786-0 renal it was 70.3 nM, 470 nM, 28.1 µM; with NCI-H23 lung it was 81.5 nM, 195 nM, 24 µM.

Take `C#CCN1CCN(C(=S)N/N=C(\C)c2ccccn2)CC1`: the TGI with UACC-62 melanoma was 129 nM and 2.67 µM; in the experiment on RPMI-8226 leukemia, 79.8 nM and 11.7 µM.

In the case of `CCC(=O)OC1CCn2c1nc1c2C(=O)C(C)=C(N2CC2)C1=O` (configuration not stated), the TGI with A549 NSCLC was 86.5 nM and 934 nM; in the experiment with TK-10 renal, 150 nM and 2.88 µM; in the experiment on RPMI-8226 leukemia, 267 nM and 15 µM; with K-562 leukemia it was 477 nM and 10.8 µM; in the experiment with SR leukemia it was 24.9 nM and 32.8 µM; in the experiment on SF-539 CNS, 29.7 nM and 314 nM. The TGI with 786-0 renal is 40.7 nM and 601 nM. Also, the GI50 is 38.7 nM and 1.09 µM in the experiment with RPMI-8226 leukemia; 4.42 nM and 3.61 µM in the experiment on SR leukemia.

On to `Cc1cc2c(c3oc(C(O)(CO)C4CO4)cc(=O)c13)C(=O)c1c(O)cccc1C2=O` (configuration not stated), for which the TGI in the experiment on HT29 colon was 5.31, 3.82, 4.28, 34.1 nM; in the experiment on SW-620 colon it was 3.09 nM and 0.24 nM; in the experiment on MCF7 breast it was 3.16 nM and 0.29 nM; in the experiment with SK-MEL-5 melanoma it was 4.5 nM and 0.186 nM; in the experiment with TK-10 renal, 7.46 nM, 8.67 nM, 90.6 nM; in the experiment on RPMI-8226 leukemia, 4.61 nM and 0.264 nM. Besides, the TGI in the experiment with LOX IMVI melanoma was 1.93 nM and 0.182 nM; in the experiment on SN12C renal, 2.15 nM and 0.104 nM; with PC-3 prostate, 2.57 nM and 0.207 nM; with K-562 leukemia, 175 nM, > 37.5 µM, > 100 µM; with OVCAR-4 ovarian it was 6.61 nM and 17 µM; in the experiment on SF-268 CNS, 168 nM, 4.41 nM, 19.1 nM. Further, the TGI in the experiment on M14 melanoma is 4.19 nM, 1.29 nM, 16.2 nM; with KM12 colon it was 2.57 nM and 0.256 nM; in the experiment on NCI/ADR-RES ovarian, 7.74 nM and 0.232 nM; in the experiment with HCT-116 colon, 3.01 nM and 0.151 nM; in the experiment on OVCAR-8 ovarian it was 2.2 nM and 0.188 nM; with 786-0 renal it was 1.66 nM and 0.152 nM. Further, the GI50 in the experiment with OVCAR-5 ovarian is 0.228 nM and 3.75 nM.

For `COc1cc(-c2oc3c(OC)c(OC)cc(O)c3c(=O)c2OC)ccc1O`, the TGI with ACHN renal is > 100 µM [sample A, 1 test] and 5 µM [sample B, 1 test].

Consider `CO[C@H]1[C@H](O)[C@H](O[C@H]2CC[C@@]3(C)[C@H](CC[C@@H]4[C@@H]3CC[C@]3(C)[C@@H](C5=CC(=O)OC5)CC[C@]43O)C2)O[C@@H](C)[C@@H]1O`, for which the TGI in the experiment on IGROV1 ovarian is 1.35 nM and 54.2 nM; in the experiment with OVCAR-5 ovarian, 3.73 nM and 49.6 nM; in the experiment on SNB-78 CNS it was 9.01 nM and > 100 µM; with HOP-62 NSCLC, 1.1 nM and 12.3 nM.
